Reference: PubChem BioAssay AID1159614 (National Center for Advancing Translational Sciences (NCATS), 2016)
Screen size: about 45,000 compounds; about 65 (0.1%) were called active. The call rests on the fitted dose curve; in most records, active means well fitted activation curve with a large enough effect; inconclusive means small, poorly fitted or top-dose-only effect; inactive means no such curve, though single readings can be large or run the other way. The list shows a part of the results.

Each compound was assayed against Galactocerebrosidase (Homo sapiens) (UniProt P54803) (assay: A Novel Cell-Based Assay to Identify Small Molecules for B -Galactocerebrosidase). Settings: 145M-Twi-hGALC-G270D cells (Twitcher mouse brain line with human GALC G270D), HMU-beta-Gal fluorescence, 48 h; series mostly up to 57.5 µM; activation: at the top concentration.
Summary of the method: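 Brain-derived Twitcher mouse 145M-Twi cells stably expressing human GALC-G270D or wild-type GALC, treated live, then residual GALC activity read by fluorescence of HMU-b-Gal substrate (0.1 mM final) in citrate-phosphate buffer pH 5.2 with sodium taurocholate. Signal increase indicates enhancement.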
Further: 0% is about no effect; nearly all actives have a fitted effect of over 65% in size.

Chain of UniProt P54803 (P54803 whole entry, looked up): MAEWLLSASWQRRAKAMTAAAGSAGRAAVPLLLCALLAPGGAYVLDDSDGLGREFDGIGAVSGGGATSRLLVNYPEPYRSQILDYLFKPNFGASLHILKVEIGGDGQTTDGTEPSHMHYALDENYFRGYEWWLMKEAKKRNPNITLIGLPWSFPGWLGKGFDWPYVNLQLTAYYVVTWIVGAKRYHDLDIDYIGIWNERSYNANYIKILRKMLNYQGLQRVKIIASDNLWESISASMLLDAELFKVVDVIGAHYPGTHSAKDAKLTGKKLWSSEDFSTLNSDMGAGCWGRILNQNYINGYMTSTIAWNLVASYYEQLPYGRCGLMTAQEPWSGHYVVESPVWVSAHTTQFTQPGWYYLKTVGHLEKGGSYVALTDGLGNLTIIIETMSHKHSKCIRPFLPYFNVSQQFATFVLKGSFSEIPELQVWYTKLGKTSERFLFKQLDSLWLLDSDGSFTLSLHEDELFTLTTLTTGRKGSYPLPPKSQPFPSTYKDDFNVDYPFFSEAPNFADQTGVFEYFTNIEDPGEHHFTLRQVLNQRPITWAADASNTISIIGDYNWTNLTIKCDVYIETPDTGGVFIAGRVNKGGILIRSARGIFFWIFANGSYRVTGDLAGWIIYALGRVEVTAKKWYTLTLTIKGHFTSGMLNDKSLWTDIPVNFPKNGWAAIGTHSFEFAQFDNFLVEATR

activation, inactive:
O=C1CC(c2c(F)cccc2Cl)c2c(ccc3ccccc23)N1 (stereo not drawn) 0.16%
COc1cc(C2c3c(oc4ccc(F)cc4c3=O)C(=O)N2Cc2ccc3c(c2)OCO3)ccc1O (stereo not drawn) -10.1%
COC(=O)c1cccnc1-n1c(=O)c2cccnc2n(CC(=O)Nc2cccc(C)c2)c1=O -18.5%
COc1ccc(NC(=O)Cc2c(C(=O)O)[nH]c3ccccc23)cc1OC -0.821%
O=C(CCS(=O)(=O)c1nc(-c2ccc3c(c2)OCO3)cc(C(F)(F)F)n1)Nc1ccc(Br)cc1 -20.7%
COc1ccc(CNC(=O)Cc2coc3ccc(C)cc23)cc1 -17.3%
Cc1ccc(NC(=O)c2oc3ccc(S(=O)(=O)N4CCOCC4)cc3c2C)c(C)c1 -15%
CCOC(=O)c1c(C)n(C)c2ccc(O)cc12 -7.46%
CCN(c1ccccc1C)S(=O)(=O)c1nnc(NC(=O)c2ccccc2C)s1 -11.8%
Nc1cc(-c2ccncc2)c[nH]c1=O -12.4%
COc1cc(NC(=O)N2CCSc3ccccc32)cc(OC)c1OC -15.9%
CC(C)Oc1ccc(CNC(=O)c2ccc3c(c2)nc2n3CCOC2)cc1 -24.7%
Cc1cc(C)c(NC(=O)c2oc3c(c2C)-c2[nH]ncc2CC3)c(C)c1 -0.819%
Cc1cccc(CN2CCN(CC(=O)NCCc3ccc(Cl)cc3)C2=O)c1 -16.9%
CCOc1cc2c(cc1OCC)C(CC(=O)O)N(C(=O)Nc1ccc(Br)c(C)c1)CC2 (stereo not drawn) -18.4%
O=C(Nc1ccc(N2CCN(c3ccc(F)cc3)CC2)c(C(=O)O)c1)c1cccs1 -6.77%
CCCCOc1ccc(C(=O)NCCc2sc3nc(-c4ccc(OC)cc4)nn3c2C)cc1 -11%
CCOc1ccc(N(C)C(=O)C2CCN(S(=O)(=O)c3c(C)noc3/C=C/c3ccc(C)cc3)CC2)cc1 -29.1%
Cc1ccc(NC(=O)/C=C/c2ccco2)cc1F -19.3%
O=C(NCc1ccc(Cl)cc1)C1CCC(CNS(=O)(=O)c2ccccc2)CC1 (stereo not drawn) 12.9%
CCN(CC)c1nn2c(=O)c(C(=O)NCCc3ccccc3C)cnc2s1 -1.75%
COc1ccc(Cl)cc1NC(=O)CSc1nc2c(oc3ccccc32)c(=O)n1Cc1ccco1 -3.43%
Fc1ccccc1N1CCN(c2ncnc3onc(-c4ccc(Cl)cc4)c23)CC1 -25.6%
CCOC(=O)c1ccccc1NC(=O)CN1C(=O)CC(c2ccccc2)Sc2ccccc21 (stereo not drawn) -2.18%
Cc1ccc(C(=O)Nc2ccc(C(=O)O)cc2)cc1S(=O)(=O)N1CCC(C)CC1 7.11%
Cc1cccc(-c2nc3scc(CCNS(=O)(=O)c4ccc(F)c(C(F)(F)F)c4)n3n2)c1 -9.89%
CCCCOc1ccc(C(=O)NCc2cn3cccc(C)c3n2)cc1 -9.5%
Cc1c(C(=O)Nc2ccc(F)c(Cl)c2)sc2nc3n(c(=O)c12)CCC3 -19%
COc1ccc(NC(=O)c2ccco2)cc1NC(=O)c1ccc(C#N)cc1F -6.19%
COCCn1c(SCC(=O)c2ccc(C)cc2)nc2cc(C(=O)NC3CCCC3)ccc2c1=O -9.77%
COc1ccccc1N1CCN(c2ncnc3c2cnn3-c2ccc(C)cc2)CC1 -7.36%
FC(F)(F)c1cc(Nc2nc3ccccc3c3nncn23)ccc1Cl -7.37%
CCCCCSc1nnc2c(n1)[nH]c1c(C)cccc12 -7.05%
O=C(NCCc1ccccc1)C1CCN(c2nc3ccccc3nc2C(F)(F)F)CC1 -1.06%
CCCNC(=O)c1cnn(-c2ccc(C)c(C)c2)c1C1CCN(C(=O)OC(C)(C)C)CC1 -5.54%
O=S(=O)(NCC(c1ccco1)N1CCN(c2ccccc2)CC1)c1cc(F)ccc1F (stereo not drawn) -3.27%
Cc1cc(C)cc(N2CCn3c2nc2c3c(=O)n(Cc3c(F)cccc3Cl)c(=O)n2C)c1 0.752%
O=C(C1CC1)N1CCc2cc(Br)cc(S(=O)(=O)Nc3ccc(F)c(F)c3)c21 -5.76%
CCCOc1ccc(C(=O)N2CCC(c3nc4ccccc4s3)CC2)cc1 -19.6%
CCc1ccc(/C=C(/C#N)c2nc(-c3ccc(C)cc3)cs2)cc1 -9.23%
CC(C)(C)OC(=O)N1CCC(c2c(C(=O)NCCN3CCOCC3)cnn2-c2cccc(Cl)c2)CC1 -21.6%
O=C(Cn1c(=O)c(CNc2ccccc2)cc2cc3c(cc21)OCCO3)Nc1ccccc1Cl -24.3%
CCc1ccc2oc(-c3ccc(C)c(NC(=O)Cc4ccccc4)c3)nc2c1 -12.8%
O=c1c(S(=O)(=O)c2ccccc2)cn(Cc2ccccc2)c2cc(N3CCCC3)c(F)cc12 -35.6%
CCOc1ccc(N(Cc2ccccc2)C(=O)c2nc(SC)ncc2Cl)cc1 -13.4%
Cc1nn(C)c2c1c(C(F)(F)F)cc(=O)n2Cc1ccc(Br)cc1F -9.44%
Cn1c(=O)c2c(nc(CN3CCN(c4ccccc4F)CC3)n2Cc2ccc(F)cc2)n(C)c1=O -7.28%
CCOC(=O)C1CCN(CCC(=O)Nc2ccccc2OC)CC1 15.7%
N#Cc1ccc(NC(=O)COCc2cc(-c3ccco3)on2)cc1 8.88%
COc1ccc(OC)c(C2CC(=O)Nc3c2c(=O)[nH]c2nc4ccccc4n32)c1 (stereo not drawn) -5.78%
Cc1cccc(NC(=O)CSc2nc3n[nH]c(C)c3c(=N)n2-c2cccc(Cl)c2)c1 -8.24%
Cc1cc(C)cc(C(=O)NCCc2sc(-c3ccc(F)cc3)nc2C)c1 -3.11%
Cc1cccc(NC(=O)N2CCC(N3CCN(Cc4ccccc4)C(=O)C3=O)CC2)c1C -6.77%
CCOc1ccc(OCC(=O)NCCS(=O)(=O)N2CCN(c3cccc(Cl)c3)CC2)cc1 0.118%
Cc1cccc(N2CCN(Cc3cc(=O)oc4cc(C)ccc34)CC2C)c1 (stereo not drawn) -13.4%
CC(C)c1ccc(CNc2nc(-c3ccco3)nn2S(=O)(=O)c2ccc(F)cc2)cc1 -2.12%
Cc1ccccc1N1CC(c2nnc(NC(=O)c3ccco3)s2)CC1=O (stereo not drawn) -11.1%
O=C(CN1C(=O)c2cccc3cccc1c23)Nc1ccccc1Br -8.56%
Cn1nc(C(=O)N2CCN(c3ccccc3F)CC2)c2c1-c1ccccc1S(=O)(=O)C2 -11.3%
CCCCNS(=O)(=O)c1ccc2nc(-c3cccnc3)cc(C(=O)NC(C)C)c2c1 -13.8%
CCCC1N=C2c3ccccc3N=C(SCC(=O)NCCc3ccc(Cl)cc3)N2C1=O (stereo not drawn) -14.4%
O=C(c1cc(-c2ccc(F)cc2)on1)N1CCN(c2ccc(F)cc2)CC1 -11.9%
CCOC(=O)COc1ccc(C)cc1C(=O)c1ccn2nc(-c3ccc(Cl)cc3)cc2n1 -4.02%
